Here are results for one molecule from patent EP1595536A1, “PHARMACEUTICALS COMPRISING SHIKONINS AS ACTIVE CONSTITUENT” (Beijing JBC Chinese Traditional Medicine Science and …, priority 2003, dated 2004).

The subject of this experiment is mouse's splenic cell and NK cell. In words: Mouse model of low immunologic function caused by mitomycin C. The note with it: 6mg/kg injected in the abdominal cavity for 5 days, P<0.001.

`CC(C)=CCC(OC(=O)C=C(C)C)C1=CC(=O)c2c(O)ccc(O)c2C1=O` (stereo not shown): the “increase of cell toxicant in the mouse's splenic cell and NK cell” value is “around 20%”.
